Results published in PubChem BioAssay AID493208 (National Center for Advancing Translational Sciences (NCATS), 2011).
The campaign covered roughly 44,000 compounds. About 340 (0.77%) were called active. Inconclusive results, whose numbers are uncertain, are shown with a selection of clear calls. The call rests on the fitted dose curve; in most records, active means well fitted inhibition curve with a large enough effect; inconclusive means small, poorly fitted or top-dose-only effect; inactive means flat fitted curve, though single readings scatter. Potencies of inconclusive entries are left out as doubtful fits.

experiment: Acumen qHTS Assay for Inhibitors of the mTORC1 Signaling Pathway in MEF (Tsc2-/-, p53-/-) Cells: Sytravon; conditions: phospho-rpS6 immunofluorescence/PI, 24 h; series mostly up to 38.3 µM; activity change, negative = inhibition: at the top concentration; further: nearly all actives have a fitted effect of over 50% in size;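 on activity change, negative = inhibition: plate controls were DMSO for no effect and rapamycin for full effect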
In short: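 Tsc2-/-, p53-/- MEFs (empty-vector stable line) in DMEM + 10% FBS were treated with compounds 24 h at 37 degree Celsius, fixed, and immunostained for phospho-rpS6 (Alexa-488) with propidium iodide counterstain. Laser-scanning cytometry gave % positive cells, normalized against 7.5 nM rapamycin and DMSO.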
Potency means the concentration at half of the fitted maximal effect; tags describe the fitted curve by direction and shape.

Row | Compound | Potency | activity change, negative = inhibition
1 | CCOc1ccccc1CNC(=O)CCc1cn(C)c2ccccc12 | inconclusive [falling, single point] | –
2 | CCOc1ccc(NC(=O)c2nn(C)c3c2COc2ccccc2-3)cc1 | – | inactive: -0.272%
3 | Cc1cc(C)c(-c2n[nH]c3c2C(c2ccccc2F)N(CCO)C3=O)c(O)c1 (stereo not given) | inconclusive [falling, single point] | –
4 | Cc1nc2cccnc2n1-c1cccc(C(=O)NCc2cccc(Cl)c2)c1 | inconclusive [falling, partial curve, poor fit] | –
5 | O=C(Nc1ccc(F)c(F)c1)c1ccc(=O)n(Cc2ccc(F)cc2)c1 | inconclusive [falling, partial curve, poor fit] | –
6 | COc1cccc(-c2nc3c(c(SCC(=O)Nc4cccc(C)c4C)n2)Cc2c(CO)cnc(C)c2O3)c1 | inconclusive [falling, partial curve, poor fit] | –
7 | CC(C)Cc1nn2cc(-c3cccc(Br)c3)nc2s1 | – | inactive: -5.55%
8 | CCS(=O)(=O)N1CC(=O)N(c2cc(C)cc(C)c2)C(C)(C(=O)NC2CCCCC2)C1 (stereo not given) | – | inactive: 0.321%
9 | CC1=Nc2cc(C(=O)NC3CCCC3)ccc2Sc2ccc(Br)cc21 | inconclusive [falling, full curve] | –
10 | COc1ccccc1C(=O)NCC1(N2CCN(C)CC2)CCCCC1 | inconclusive [falling, single point] | –
11 | Cc1ccccc1Nc1cc(C(=O)NC2CCCCC2)c2ccccc2n1 | – | inactive: -13.5%
12 | Cn1c(=O)oc2cc(S(=O)(=O)N3CCCC(C(=O)N4CCN(c5ccccc5F)CC4)C3)ccc21 (stereo not given) | – | inactive: -6.26%
13 | CSc1cccc(Nc2cc(C(=O)NCCCN(Cc3ccccc3)C(C)C)c3ccccc3n2)c1 | inconclusive [falling, single point] | –
14 | Cc1ccc(CCNc2ncnc3onc(C)c23)cc1 | inconclusive [falling, full curve] | –
15 | Cc1ccc(S(=O)(=O)c2nc(-c3ccco3)oc2SC(C)c2ccccc2)cc1 (stereo not given) | inconclusive [falling, partial curve, poor fit] | –
16 | CCCCN(CC)CCNC(=O)c1cc2c(-c3ccc(Cl)cc3)nn(C)c2s1 | inconclusive [falling, single point] | –
17 | CCc1ccc(NC(=O)c2ccc(F)c(S(=O)(=O)N3CCC(C)CC3)c2)cc1 | – | inactive: 0%
18 | CC(=O)c1c(C)oc2ccc(N(C(=O)Oc3ccccc3)S(=O)(=O)c3ccc(C(C)(C)C)cc3)cc12 | – | inactive: -15.3%
19 | COc1ccc2c(c1)-c1nc(NC(=O)c3cc(Cl)ccc3OC)sc1CC2 | – | inactive: 3.41%
20 | COc1ccc(OC)c(NC(=O)c2c(NCc3ccc(C)o3)sc3c2CCC(C)C3)c1 (stereo not given) | inconclusive [falling, single point] | –
21 | COCCCNC(=O)c1c(NC(=O)c2nc(S(C)(=O)=O)ncc2Cl)sc2c1CCCC2 | – | inactive: -29.4%
22 | COc1ccc(-c2nc(CN3CCC(C(=O)NCCCN4CCN(c5ccccc5F)CC4)CC3)c(C)o2)cc1OC | active: 14.7 µM | –
23 | COCCCNC(=O)c1cc2n(n1)CCCN(Cc1ccc(C)cc1)C2=O | inconclusive [activator, single point] | –

Row | Compound | Potency | activity change, negative = inhibition
24 | CCS(=O)(=O)N1CCC(C(=O)NCCC(C)C)CC1 | – | inactive: 9.82%
25 | Cc1cccc(OCc2ccc(-c3nc(C#N)c(NCCN(C)C)o3)o2)c1 | active: 5.21 µM | –
26 | CCCN(CCC)C(=O)CSc1nnc2cc(C)c3cc(C)cc(C)c3n12 | – | inactive: -1.63%
27 | O=C(Nc1cc(Cl)cc(Cl)c1)c1ccc(F)c(S(=O)(=O)NC2CCCC2)c1 | inconclusive [falling, partial curve, poor fit] | –
28 | CS(=O)(=O)Nc1ccc(-c2nc3ccccc3s2)cc1 | – | inactive: -5.21%
29 | COc1cccc(NC(=O)Nc2ccc3snnc3c2)c1 | inconclusive [falling, partial curve, poor fit] | –
30 | COc1cc2c(cc1NC(=O)COc1ccc(Br)cc1)oc1ccccc12 | inconclusive [falling, partial curve] | –
31 | COc1ccc(-c2cc(C(F)(F)F)n3ncc(-c4ccccc4)c3n2)cc1 | inconclusive [falling, single point] | –
32 | COc1ccccc1Nc1nc(N)nc(N)c1S(=O)(=O)c1ccccc1 | inconclusive [falling, single point] | –
33 | CCOCCCNC(=O)c1cn(CC(C)C)c(=O)c2c1c1ccccc1n2C | inconclusive [activator, partial curve, poor fit] | –
34 | CSc1ncc(Cl)c(C(=O)N(C)c2ccccc2)n1 | inconclusive [falling, single point] | –
35 | COc1ccccc1NC(=O)CSc1ccc(-c2ccccn2)nn1 | inconclusive [falling, partial curve] | –
36 | Cc1ccc(N(C)C(CNS(=O)(=O)c2ccccc2)c2ccccc2)cc1 (stereo not given) | – | inactive: -12.4%
37 | CCCCCOc1ccccc1CN1C(=O)C(=O)c2cc(C)ccc21 | inconclusive [falling, partial curve, poor fit] | –
38 | CCOC(=O)Cc1c(C)nc2cc(-c3ccc(C(C)(C)C)cc3)nn2c1C | inconclusive [falling, partial curve, poor fit] | –
39 | COc1ccc(-n2ncc(C(=O)N3CCN(C4CCCCC4)CC3)c2C2CCN(C(=O)OC(C)(C)C)CC2)cc1 | inconclusive [falling, single point] | –
40 | Cc1ccc(NC(=O)c2c3c(nc4ccccc24)C(=O)N(C2CCCCC2)C3)cc1F | – | inactive: 1.09%
41 | CCCNC(=O)CSc1c2c(nc3ccc(Cl)cc13)CCCC2 | inconclusive [falling, single point] | –
42 | CCc1cccc(NC(=O)CSc2nc3ccccc3nc2N2CCCCC2)c1 | inconclusive [falling, single point] | –
43 | COc1ccc(-c2nnc(SC(C)C(=O)O)o2)cc1 (stereo not given) | – | inactive: 0.809%
44 | CCCCNC(=O)CCc1c(C)nc2cc(-c3ccccc3)nn2c1C | – | inactive: -5.24%
45 | Cc1[nH]c2ccccc2c1C1(O)C(=O)N(Cc2ccccc2)c2ccc(Cl)cc21 (stereo not given) | inconclusive [falling, partial curve] | –
